The campaign covered roughly 48,000 compounds. About 450 (0.94%) were called active. Inconclusive results (about 19%) are left out. Calls follow the shape of the dose curve; as a rule, active = well fitted inhibition curve with a large enough effect; inconclusive = small, poorly fitted or top-dose-only effect; inactive = no such curve, though single readings can be large or run the other way. This is one part of the list.
Assay: Primary qHTS for Identification of Small Molecule Inhibitors of Huntingtin Promoter Activity; also: nearly all actives have a fitted effect of over 50% in size
Conditions: HEK293 HTT promoter firefly luciferase reporter (activity 0% = vehicle and -100% = no light), 24 h; series mostly up to 57.5 µM; activity change, negative = inhibition: at the top concentration
Summary of the method: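 Firefly luciferase readout (Dual-Glo, 10 min RT) after 24 h, 37 °C compound exposure (final up to 57.5 uM) of HEK293 reporter cells cultured 24 h beforehand; PTC124 at 50 uM final as control inhibitor; activity scaled vehicle 0%, zero RLU -100%.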

Activity change, negative = inhibition, inactive:
O=C(COc1ccc2oc3c(c2c1)CCCC3)Nc1ccc(Br)cc1 -14.1%, COc1cc(OC)cc(C(=O)Nc2ccccc2-c2nc3ccccc3s2)c1 17.3%, COc1ccc2[nH]c(C)c(CCNS(=O)(=O)c3cc(F)ccc3OC)c2c1 8.69%, COc1ccc(CCNC(=O)C2(c3cccs3)CCOCC2)cc1OC 0.326%, COc1ccc(-c2nc3c4ccccc4n(CC(=O)Nc4cc(F)ccc4F)c(=O)n3n2)cc1 29.3%, CCOc1ccc(OC(=O)c2cn(-c3ccc(C)cc3)c(=O)c3ccccc23)cc1 -17.9%, COc1ccc(-c2cc(C(F)(F)F)n3nc(C(=O)Nc4cc(Cl)cc(Cl)c4)cc3n2)cc1 -14.5% [at 11.5 µM], CCCCC(=O)Nc1ccccc1C(=O)OCc1cc(=O)n2nc(C3CCCCC3)sc2n1 -33.7%, COc1ccc(N2CCN(S(=O)(=O)CCNC(=O)Cc3ccc(Cl)cc3)CC2)cc1 -13.4%, CCn1cc(S(=O)(=O)c2cc(C)cc(C)c2)c(=O)c2cc(F)c(N3CCCC3)cc21 -14.1%, CCOc1ccc(CCNC(=O)c2nnc(Cc3cc(OC)c(OC)c(OC)c3)o2)cc1OCC -19.7%, Cc1ccccc1Cn1c(=O)n(Cc2ccc(Cl)cc2)c(=O)c2cccnc21 -9.04%, COc1ccc(OC)c(NC(=O)CSC2=Nc3ccccc3C3=NC(CC(=O)NCc4ccc5c(c4)OCO5)C(=O)N23)c1 (centres undefined) 0%, COc1cc(Cl)c(C)cc1NC(=O)c1sc2nc3n(c(=O)c2c1C)CCCCC3 -1.67%, CCOC(=O)c1c(NC(=O)c2nc(SC(C)C)ncc2Cl)sc2c1CCCC2 -11.4%, Cn1c(SCc2ccc(C(F)(F)F)cc2)nc2c([nH]c3ccccc32)c1=O 0.288%, O=c1cc(N2CCN(c3ccc(F)cc3)CC2)[nH]c(=O)n1-c1ccc(Br)cc1 -10.6%, COc1cc(NC(=O)N2CCC(CN3CCCC3)CC2)cc(OC)c1OC -5.12%, COc1cc(C(=O)NCC(c2cccnc2)N2CCc3ccccc32)cc(OC)c1OC (centres undefined) -20.2%, CN(C)c1ccc(C(CNS(=O)(=O)c2ccccc2)N2CCc3ccccc32)cc1 (centres undefined) 20.6%, CC(=O)c1c(C)oc2c(Cl)cc(NS(=O)(=O)c3ccc(Cl)cc3)cc12 -7.43%, CCN(CC)C(=O)Cn1c(=O)n(Cc2ccc(C(=O)NCc3ccccc3Cl)cc2)c(=O)c2ccccc21 -9.95%, CCOC(=O)c1c(-c2ccc(Br)cc2)csc1NC(=O)c1ccccc1F -8.7%, O=C1CN(C(=O)c2ccccc2C(F)(F)F)C(c2ccccc2)c2cc(F)ccc2N1 (centres undefined) -31.1%, COc1cc2c(cc1OC)C(COc1ccc3c(C)cc(=O)oc3c1)N(C(=O)c1ccc(Cl)cc1)CC2 (centres undefined) -17.8%, O=C1[C@@H]2CSC(c3ccc(C(F)(F)F)cc3)N2C(=O)N1c1ccccc1 (some centres undefined) -20.9%, CCCNc1c(NC(=O)c2ccc(OCCC)cc2)c(=O)oc2ccccc12 -20.1%, COc1ccc2c(c1OC)C(=O)O[C@@H]2[C@H]1c2c(cc3c(c2OC)OCO3)CCN1C -14.2%, CCCC(=O)N1CCN(c2nc3c(OC)ccc(C)c3s2)CC1 -18.8%, CCOc1ccc(-n2c(SCC(=O)N3CCOCC3)nc3c([nH]c4ccccc43)c2=O)cc1 -18%, CC(C)(C)OC(=O)N1CCC(c2c(C(=O)N3CCN(C(=O)c4ccco4)CC3)cnn2-c2cccc(F)c2)CC1 1.53%, Cc1ccc(C)c(Nc2nnc(-n3nc(C)cc3C)c3ccccc23)c1 -25.5%, O=C(Nc1cccc(F)c1)c1ccc2snnc2c1 8.64%, CCN(c1ccccc1)S(=O)(=O)c1nnc(NC(=O)c2cccs2)s1 -23.9%, Cc1ccc(-n2nc(C(=O)N3CCC(C)CC3)c(=O)n(C)c2=O)cc1 4.88%, Cc1ccc(CNC(=O)C(CC(C)C)NS(=O)(=O)c2ccc3c(c2)oc(=O)n3C)cc1 (centres undefined) -3.26%, Cc1ccc(Cc2nc3ccccc3nc2SCC(=O)Nc2ccc3c(c2)OCO3)cc1 -26.9%, COc1ccc(CNC(=O)C2CCN(Cc3nc(-c4ccc(Cl)cc4)oc3C)CC2)cc1 -4.43%, Cc1ccc(S(=O)(=O)NCCS(=O)(=O)N2CCN(c3ccccc3)CC2)cc1 -35.4%, Cc1nc(N2CCOCC2)c2c(C(=O)Nc3cccc(C(F)(F)F)c3)c(C)oc2n1 -2.89%, CSc1ccc(CCNC(=O)CCc2c(C)nc3c(c(C)nn3-c3ccccc3)c2C)cc1 19.5%, O=C(NC1CC(=O)N(c2cccc(F)c2)C1)c1ccc(Br)o1 (centres undefined) 5.43%, CC(=O)c1ccc(NC(=O)CCSc2nc(-c3ccco3)cc(C(F)(F)F)n2)cc1 -6.55% [at 11.5 µM], COC(=O)c1c(-c2ccc(Cl)cc2)noc1N1CCN(c2ccc(C)cc2C)CC1 -16.4%, CC(C)c1ccc(NC(=O)C2CCCN(S(=O)(=O)c3cccc4cccnc34)C2)cc1 (centres undefined) -20.6%, COc1ccc(OC)c(NC(=O)c2noc3c2CCCC3)c1 30.3%, CCOC(=O)Cc1ccc(NC(=O)N2CCOc3ccc(C)cc32)cc1 0.0905%, CCOC(=O)c1cc(S(=O)(=O)N2CCN(c3ccccc3)CC2)[nH]n1 -13.6%, CCc1nnc2c3ccccc3nc(Nc3ccc(C(C)=O)cc3)n12 -32.6% [at 11.5 µM], Cc1ccc(OC(C)C(=O)Nc2nonc2-c2ccc(Br)cc2)cc1C (centres undefined) -16%, Cc1ccc2nc(N(Cc3cccnc3)C(=O)COc3ccccc3)sc2c1 7.2%, CCOC(=O)Cn1c(=O)oc2cc(S(=O)(=O)N3CCN(c4cccc(C)c4C)CC3)ccc21 -12.2%, Cc1ccc(Nc2c(-c3c[nH]c4ccccc34)nc3cc(C)ccn23)cc1 26.1%, CCOc1ccccc1NC(=O)CSc1nc2c(oc3ccccc32)c(=O)n1-c1ccc(C)c(C)c1 -13.1%, COc1ccc(-c2nn3c(=O)cc(CN4CCN(C(=O)c5ccc(C(C)(C)C)cc5)CC4)nc3s2)cc1 -26.2%, CCOC(=O)c1c(N)n(-c2ccc(C)c(Cl)c2)c2nc3ccccc3nc12 -7.79%, CC1=C(c2ccc(C)c(C)c2)S(=O)(=O)N(Cc2ccc(C(=O)NCc3cccc(C)c3)cc2)C1=O -27.7%, O=C(CCC1N=C2c3ccccc3N=C(SCc3ccc(F)cc3)N2C1=O)NCc1cccs1 (centres undefined) 0.9%, Cc1cccc(NC(=O)c2oc3ccccc3c2NC(=O)Cc2coc3c(C)c(C)ccc23)c1 -7.91%
